# According to patent US20080200405A1, “Drug Resistance Reversal In Neoplastic Disease” (priority 2007, published 2008):
# For some assays here: At least one read-out could not be matched to a standard name with certainty. For some assays here: For at least one compound, name, drawing or mass did not settle the structure.
# Key:
# [1] = tested on: Lipid peroxidation; assay: Lipid peroxidation inhibition (method of Ohkawa); assay type: biochemical; conditions: for Lipid Peroxidation Inhibition, % Inhibition: 10 uM
# [2] = tested on: Angiogenesis in CAM; assay: Neovascularization on the CAM (Inhibition of Angiogenesis in CAM); assay type: in vivo, chicken; conditions: 30 ug; listed as OT-551 HCl, hydrochloride
# Description: In vivo neovascularization was examined by the method previously described by Auerbach et al. (J. Dev. Biol. 41:391-394 (1974)). Ten-day old chicken embryos were purchased from Spafas, Inc. (Preston, Conn.) and were incubated at 37° C. with 55% relative humidity. In the dark, with the aid of a candling lamp, a small hole was punctured in the shell concealing the air sac with a hypodermic needle. A second hole was punctured in the shell on the broadside of the egg directly over an […] portion of the embryonic membrane, as observed during candling. An artificial air sac was created beneath the second hole by applying gentle vacuum to the first hole using a small rubber squeeze bulb. The vacuum caused the chorioallantoic membrane (CAM) to separate from the shell. […] These images were analyzed using Image-Pro Plus software (Media Cybernetics, Silver Spring, Md.). The number of branch points in blood vessels within the circular region superimposed to the area of a filter disk was counted for each section. […] Digital images of CAM sections adjacent to filters were collected using a 3-CCD color video camera system (Toshiba America; New York, N.Y.) and analyzed with the Image-Pro Plus software (Media Cybernetics; Silver Spring, Md.). The number of vessel branch points contained in a circular region equal to the area of a filter disk was counted for each section. […]
SMILES,"Lipid Peroxidation Inhibition, % Inhibition [1] [%]",% Lipid Peroxidation inhibition (at 1 uM) [1] [%],"Inhibition of Angiogenesis in CAM, % Inhibition [2] [%]"
"CC1(C)C=C(CO)C(C)(C)N1O [Compound 8, 2,5-dihydro-2,2,5,5-tetramethyl-1-hydroxyl-1H-pyrrol-3-yl)methanol hydrogen chloride]",81.6,,
"CC1(C)CC(Cl)CC(C)(C)N1O.Cl [Compound 21, 4-chloro-1-hydroxy-2,2,6,6-tetramethylpiperidine hydrogen chloride]",94.1,83.8,
"CC1(C)CC(Oc2nsnc2Cl)CC(C)(C)N1O.Cl [Compound 13, 4-(4-chloro-1,2,5-thiadiazol-3-yloxyl)-1-hydroxyl-2,2,6,6-tetramethylpiperidine hydrogen chloride]",93.4,82.9,
"CC1(C)CC(C#N)CC(C)(C)N1O.Cl [Compound 12, 4-cyano-1-hydroxyl-2,2,6,6-tetramethylpiperidine hydrogen chloride]",92.1,,
"CC1(C)CC(Oc2nsnc2OC2CC(C)(C)N(O)C(C)(C)C2)CC(C)(C)N1O [Compound 14, 1-hydroxyl-4-(4-(2,2,6,6-tetramethylpiperidin-1-hydroxyl-4-yloxy)-1,2,5-thiadiazol-3-yloxy)-2,2,6,6-tetramethylpiperidine bis-hydrogen chloride]",95.2,88.6,
"CC1(C)COC(=O)C(C)(C)N1O.Cl [Compound 39, N-Hydroxyl-3,3,5,5-tetramethylmorpholin-2-one hydrochloride]",,44.8,
"CC1(C)CC(OC(=O)C2CC2)CC(C)(C)N1O.Cl [OT-551, 1-hydroxy-4-cyclopropanecarbonyloxy-2,2,6,6-tetramethylpiperidine hydrochloride]",,,79.6 ± 7.9
"CC1(C)CC(O)C(Br)C(C)(C)N1O (centres unmarked) [Compound 9, 3-Bromo-2,2,6,6-tetramethyl-piperidine-1,4-diol]",87.9,57.2,
"CCCCC1(O)CC(C)(C)N(O)C(C)(C)C1.Cl [Compound 41, 1,4-dihydroxy-4-n-butyl-2,2,6,6-tetramethylpiperidine hydrochloride]",,81.8,
"CC1(C)CC(Oc2nsnc2-c2ccccc2)CC(C)(C)N1O.Cl [Compound 44, 1-hydroxy-4-(4-phenyl-1,2,5-thiadiazol-3-yloxy)-2,2,6,6-tetramethylpiperidine hydrochloride]",,83.3,
